± gives the standard deviation of the averaged measurements. The list shows a part of the results.
System: PfAP2-G AP2 domain (GST-tagged)
Experiment: gcPBM binding intensity (ln(normalized median fluorescence intensity)); higher = stronger DNA binding
Method in brief: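 Alexa488 anti-GST antibody, scanned at 488 nm, detected GST-tagged P. falciparum DNA-binding domains that had been expressed in E. coli and incubated for 1 h on an Agilent 4 × 180k array. The array carried primer-extended double-stranded 36-bp intergenic genomic probes and negative controls. Binding intensity is the highest Masliner-normalised natural-log median intensity across replicate spots of either orientation of each probe.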

| Sequence | gcPBM binding intensity (ln) |
| --- | --- |
| AATATTTCTATATGAACATGCAATGTATCTTTTTAT [TGCATGCA_site738] | 9.875 ± 0.021 |
| TTTTTATGATTATACTTATATAATTTCATGATTGAA [CACACA_negctrl_site228] | 9.64 ± 0.042 |
| AGATATATAAAATATACACACAGTAATATTTATATA [CACACA_site6767] | 9.665 ± 0.092 |
| ATATATATCTACATATGTACATATATACATTACACA [XGTACX_site7210] | 11 ± 0.56 |
| ATTTCATATGGTCAACGTACTCATGCATCCCTCCTT [XGTACX_site437] | 11.3 ± 0.87 |
| ATTTTTATTTTATATACACACAATAATACTAGAATA [CACACA_site7810] | 10.2 ± 0.23 |
| AATTATATTTGAAATACACACATAAAAACCATATAG [CACACA_site7598] | 10.3 ± 0.18 |
| TCAAAAAAGACACACCGTACATACTATTTGGACAGG [XGTACX_site7699] | 10.8 ± 0.4 |
| ATATTTATATTTATGTGTACATATGAAATAATTATT [XGTACX_site7765] | 11.5 ± 0.72 |
| TAATATATTATGAGGGGTACATAATATGGTTTATTG [XGTACX_site8301] | 11.4 ± 0.86 |
| ATATCTTATATCTTCACACATACACAATAAATACAT [CACACA_site5028] | 10.2 ± 0.16 |
| CTAAGAAGTATTTACACACCAACAAGGCGAAAAAAA [CACACA_site2945] | 10.4 ± 0.52 |
| AATGTATTCTCTCATGCACACTTTCTTTAAGGGACC [CACACA_site5245] | 10.19 ± 0.085 |
| TAAGATGATATAGACTGTACATATTGAACTTACAAG [XGTACX_site4290] | 10.9 ± 0.41 |
| ATTCATATTAAATATATATATATATATATATATATA [CACACA_negctrl_site484] | 9.84 ± 0.64 |
| GTTTTTAAATATGCCATACACACTACTATATAATAA [CACACA_site1927] | 10.1 ± 0.3 |
| TAATATATTAATTTTTGTACTTAATTATATGTTTTT [XGTACX_site5654] | 10.9 ± 0.63 |
| GAAGAAAAAGAAAAAAGTACATATATTATATTATAA [XGTACX_site7870] | 11.5 ± 1 |
| GTTGAAAATACAGAACGTACACGTTTGCCATATTGT [XGTACX_site2254] | 11.4 ± 1.1 |
| TTTTTTTTTTTTAGAGTACACACTTTTTTACATTTA [CACACA_site3836] | 11.4 ± 0.83 |
| ATATGATTTATAAAGTGTACCTTATTATAAGAAACA [XGTACX_site7914] | 11.2 ± 0.67 |
| TATGAAATGCTCCAATCACACATGAATGTAATATAT [CACACA_site5458] | 9.765 ± 0.035 |

| Sequence | gcPBM binding intensity (ln) |
| --- | --- |
| ACTTTTATTATTTATATACACACTTGCTGAAATGTT [CACACA_site3637] | 10.26 ± 0.092 |
| AGTTATAAAATATTTGCATGTAAATATATTATCTAT [TGCATGCA_site1015] | 9.715 ± 0.021 |
| AATTTTCTACAAATGTGTACTAAATAAAATATTACT [XGTACX_site7175] | 11.4 ± 0.9 |
| AGAATATAATTTTTATGTACATATATTAAATATATT [XGTACX_site8521] | 11.2 ± 0.59 |
| CACAAAAATAAACACACACACATATATATATATATA [CACACA_site4704] | 10 ± 0.35 |
| ACAATGAGGATATATACACACATACATTAAAAAAAT [CACACA_site6955] | 10.2 ± 0.23 |
| TTTTTCTGTTCTTTTTGTACTTAAATATATTTATTT [XGTACX_site5658] | 11.2 ± 0.69 |
| ATGTGTGTATTTTATAGTACAGTTACAAGCATTTTT [XGTACX_site6351] | 11.3 ± 0.75 |
| AAAAAAGAAAAAAGGACACACATAAATATACACCCG [CACACA_site5590] | 11.3 ± 0.91 |
| AAATATAAATAAAGATGTACATTATCTATATGTGAT [XGTACX_site4863] | 11.1 ± 0.59 |
| ATATAATTTGTTATACTAACTTTTTAATTATTGATA [GTGCAC_negctrl_site443] | 9.715 ± 0.021 |
| AATACGTTTATATATTGTACGTTATATATATATATA [XGTACX_site7452] | 11.1 ± 0.86 |
| TCATAAAATATGTTTTGTACATAAAATTAAACAAGT [XGTACX_site1763] | 10.9 ± 0.54 |
| AAATAAGAGAAAATATGTACATACATATATTTATAT [XGTACX_site6210] | 11.1 ± 0.53 |
| AAGAAAAGCAAACAAGTGCATAATAACAAAAAAAAT [GTGCAC_site9725] | 10.1 ± 0.12 |
| TATTTATTTATAAACACACAAATATTTTTATTTATA [CACACA_site6889] | 9.71 ± 0.085 |
| TAAGTTCGAATTACTTAAATATTGATTTTTTTAAAA [TGCATGCA_negctrl_site114] | 9.565 ± 0.007 |
| AACGAAAGAAAAAAAGCACACACAGTTTTGAGCAAT [CACACA_site8658] | 9.96 ± 0.16 |
| ACCATGATAAATGTATTAAATGTATCATAACCTATG [CACACA_negctrl_site513] | 9.91 ± 0.085 |
| ATGGAAACAAGCATCACACATATAAATATATATATA [CACACA_site4979] | 10 ± 0.28 |
| ATCCGTGTCTGAAATACACACATGATAATGTGAATG [CACACA_site8210] | 10 ± 0.23 |
| CAAACATTTTAATGTACACACACCCACAGACAAACA [CACACA_site5522] | 11.3 ± 0.92 |

| Sequence | gcPBM binding intensity (ln) |
| --- | --- |
| TTCTTTTTGAAATATTAACACACATTTTGTTAATTA [CACACA_site9337] | 9.825 ± 0.007 |
| AGGAATTTATAAAATTGTACTTTTAATTACCTACAG [XGTACX_site3153] | 11.3 ± 0.93 |
| ATAAATATCATATATATACACACGTAATACATAATA [CACACA_site4001] | 9.935 ± 0.092 |
| ATCTTATATATACGTTGTACTACAGGATATGTCATA [XGTACX_site5734] | 11.3 ± 0.86 |
| TTCATTTACCCTTATTAACACACAAAATATAATACG [CACACA_site8821] | 10.2 ± 0.19 |
| TGTATATTATAAGATAGTACATATATATAATATATA [XGTACX_site1297] | 10.8 ± 0.65 |
| TTAATATTATGTTAAAGTACTTTATATATATATAAT [XGTACX_site2646] | 11 ± 0.52 |
| AAGGAGATAATTTATTGTACATATAATAAATGAACA [XGTACX_site6252] | 10.9 ± 0.68 |
| TCTTACAAAAAAAAAAAAAAATAAAATAAAATATAT [CACACA_negctrl_site1575] | 9.54 ± 0.13 |
| ATAAAATAAAATAAATGTACACGAAAAAAAATATTT [XGTACX_site3747] | 11.5 ± 0.91 |
| ATATTAAGAATATATACACACATAAGTATTGTATAT [CACACA_site6110] | 9.835 ± 0.007 |
| GTACACATATATATATATATATATATATATATATTA [CACACA_negctrl_site1580] | 10.9 ± 0.42 |
| AAGAATATTTTTTTCTGTACATATAATTTATATACG [XGTACX_site5801] | 11.2 ± 0.71 |
| TTACTTGTTTATTTTATTTTTTTTTTTTTTTTGTTA [TGCATGCA_negctrl_site266] | 9.46 ± 0.22 |
| AGTGAGAAATACATAATAATACATTATGTGCATATT [XGTACX_negctrl_site247] | 9.92 ± 0.014 |
| AAAAATTTATTTTGTTTTTTAAGATTTTTTTTTTTT [CACACA_negctrl_site1210] | 9.46 ± 0.028 |
| GTTGGTAGATTTATTTGTACATATGTATCATATTAT [XGTACX_site7135] | 11 ± 0.39 |
| ACATACATATATATACGTACATATATATTTATATAT [XGTACX_site5799] | 11.4 ± 0.97 |
| ATTCTAAATATCAGTGCACACATTTCTACGCAAAGT [CACACA_site474] | 10.4 ± 0.16 |
| AGCAAATACAAACACACACACACATATACATATATA [CACACA_site3497] | 10.11 ± 0.064 |
| TAATTACAAAAACATACACACAAAAAAAAAAAAAAA [CACACA_site3782] | 9.74 ± 0.39 |
| ATATATATATATATGGGTACGTAAAAATATAATAAA [XGTACX_site4036] | 11.3 ± 0.74 |

| Sequence | gcPBM binding intensity (ln) |
| --- | --- |
| TCATATATTATATATTGTACAAAATAATAAGTATTT [XGTACX_site3987] | 10.7 ± 0.38 |
| ATAATTGTTTAAAGGTGTACAATACATATATTTTAA [XGTACX_site3648] | 11.4 ± 0.84 |
| ATTATACACCCGCGCACACACAACAAAAAAAAAAAA [CACACA_site5871] | 10.8 ± 0.71 |
| ATGCAATTATATAGTAGTACAAATTTATAAATATAC [XGTACX_site4869] | 11.3 ± 0.76 |
| ATAAATGGCTATAGCATATTGTATATGTGATTATAA [CACACA_negctrl_site948] | 9.7 ± 0.12 |
| GTTGTTATATAAAATTGTACATAAAAAACAAAATAT [XGTACX_site5313] | 11.2 ± 0.76 |
| TAAAATTATTAATGAGTGCATTATAAAATCTATATA [GTGCAC_site9493] | 9.88 ± 0.16 |
| TTTTCTTTCTTTCAAACACACATTAATTTTATTCAT [CACACA_site2734] | 9.88 ± 0.12 |
| TATATATATATATATTGTACTAAATCATTTAAATGA [XGTACX_site8016] | 10.8 ± 0.61 |
| AAAAAACAAAAACACACGCACACAAAAAAAAAAAAA [CACACA_site802] | 10.2 ± 0.6 |
| AAAATATTTATCATTTGTACTTAGATGTAAACTTGA [XGTACX_site1778] | 10.8 ± 0.61 |
| TATAAAATATAAATAAATAAATAAATATATATATAT [TGCATGCA_negctrl_site448] | 9.9 ± 0.71 |
| TATTTTATACACTTGCTAAAACATTAACACATATGT [CACACA_negctrl_site1818] | 10.02 ± 0.085 |
| ATGAAAATATTTAAAAGTACAGAAATATAAAACCTT [XGTACX_site403] | 11.4 ± 0.79 |
| CACAAATATACAAATACACACAAATATACACATATA [CACACA_site7176] | 10.2 ± 0.085 |
| AAAAAAAAAAAAAAAAGTACAAAAATTATATTAAGA [XGTACX_site4255] | 11.5 ± 0.84 |
| ACTAATAACAAAAGCTTGCACTTTTTTTTTCCTAAT | 10.2 ± 0.11 |
| TATAATTTTCTTAGTAGTACATTTTAAATCTACTAC [XGTACX_site2621] | 11.4 ± 0.96 |
| TGTATCCACATATGTACACACATATATCTGTATATG [CACACA_site5668] | 11.4 ± 0.88 |
| TATGTACAAATATGTACACACACACCGATATATATA [CACACA_site4487] | 11.6 ± 0.98 |
| TGTCATAAAACCGTTTGTACATATTAATAGACACCT [XGTACX_site4520] | 11 ± 0.53 |
| TTGTTATTCCACCGTTGTACAGTTATATACATACAC [XGTACX_site8296] | 11.1 ± 0.55 |

Reference: the supplement of paper PMC11417369
